# The list shows a part of the results.
# System: PfAP2-HC AP2 domain (GST-tagged)
# Experiment: gcPBM binding intensity (ln(normalized median fluorescence intensity)); higher = stronger DNA binding
# How it was run: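 Alexa488 anti-GST antibody, scanned at 488 nm, detected GST-tagged P. falciparum DNA-binding domains that had been expressed in E. coli and incubated for 1 h on an Agilent 4 × 180k array. The array carried primer-extended double-stranded 36-bp intergenic genomic probes and negative controls. Binding intensity is the highest Masliner-normalised natural-log median intensity across replicate spots of either orientation of each probe.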
row,Sequence,gcPBM binding intensity (ln)
1,GTAAAAGTTAAAAAAACATGCAAAATTTAAAAAAAA [TGCATGCA_site637],9.65
2,ATACATATATATATTCTACACACTTATAATATAATA [CACACA_site8782],9.75
3,ACTATATTTGCCCTTTTAATCAGAACAAAAAAAAAA [CACACA_negctrl_site1051],9.3
4,AAATAAGCATATACAAACATGCATACATATAAATAA [CACACA_negctrl_site246],9.79
5,AAAAAAAAAAAATCATGTACTTATTTTTCATTGTTG [XGTACX_site1542],9.6
6,TATATGCACTTAATATGTACACAAAAAAAAAAAAAA [XGTACX_site6199],9.48
7,TTTATATATTATACATGTACATATTTATTTATATAA [XGTACX_site3474],9.75
8,CTTATATTAAAAACTTGTACACATGTTAAGAATTTT [XGTACX_site5857],9.51
9,AGTATAAAAATAAGCACACACACAAATATATATTTA [CACACA_site923],10.5
10,ATAATATAAATATTAACACACATCCTTTTATGTATA [CACACA_site6685],9.88
11,TTTTCTTTTACAAAGGGTACATAATTTAAATTCATA [XGTACX_site3876],9.36
12,TTTCTTCTGCATTATGCACACTATAATTCGTTAAAA [CACACA_site5568],9.87
13,TTACAAAACACTTATACACACATATAAATATAAATA [CACACA_site7307],9.92
14,CTCCTCATATAATTTTGTACATAAAAAATTACCATT [XGTACX_site3879],9.56
15,ATATATTTTATATGTGTGCACTATATATATATATAT,10
16,TATTTTATAATTTACCGTACATTAATTGTATTATTA [XGTACX_site5722],9.7
17,ATATATTTTAAAGAAAGTACCCACCGTTTGAAGTCA [XGTACX_site2273],9.73
18,TGTTATATATATTGACTTAATAAATAAATAAATATA [GTGCAC_negctrl_site590],9.42
19,TCTTATTTTATAAATATAAATATATATATATATATA [GTGCAC_negctrl_site479],9.44
20,CTATAAATAACAGAAAGTACATATACATGGATATAT [XGTACX_site3317],9.69
21,TTTCTAAATGTTTATATATATATATATATATAAATA [GTGCAC_negctrl_site397],9.47
22,TATTTTGCTCATCCATGTACACATAGATATATTTTA [XGTACX_site8244],9.75

row,Sequence,gcPBM binding intensity (ln)
1,ATATTATGTGAAGAACGTACAAATTTTTACACTATA [XGTACX_site1485],9.74
2,TTCTTTTCAGAAGGAAAGAATTATAACATATCATAA [XGTACX_negctrl_site548],9.08
3,AATCCACTTTTTTATGTTATACAATATAAATTAAAT [XGTACX_negctrl_site446],9.57
4,ATTTAAGAAAAAAGTTGTACTTATTTATTTTTATTT [XGTACX_site5561],9.54
5,GGCTAAAAGGGGCACACACACAAAAAAAAAAAAAAA [CACACA_site3288],10.3
6,ATATATTATTTCTAGTGTACATACCCATATATAATA [XGTACX_site8902],9.63
7,TAGATAAACAAGAAATGTACAAACGTAAATATGTTC [XGTACX_site2373],9.83
8,TAAAAAATAAATATATGTACATATTTATTTTTTTTT [XGTACX_site850],9.46
9,ATATTTTTTTTTTCGTGTACGCATAAATATATCTAA [XGTACX_site3360],9.61
10,ATTGAATTCCAACTGGTGCACCAGTAAGATTGAAAA [GTGCAC_site9895],9.61
11,AAATTCATAAAAATATTTTATAATTATATATAGAAT [TGCATGCA_negctrl_site343],9.5
12,GGGTTTTTTATTAATACATGCATGGAAACGCACTAT [TGCATGCA_site1000],9.69
13,ATATATATATAATTTGTACACACAAATATGCATATA [CACACA_site9136],9.83
14,AAGAAAAACAATGAGATAAAGAAGAGAAAATATGTC [TGCATGCA_negctrl_site415],10.1
15,ATAAATATGTAAAAAACATGCAAAAAATTAAAGACA [TGCATGCA_site912],10.2
16,TCATAGTAGAAACACACACACACACCCATATATATA [CACACA_site1737],11.3
17,GGAAACAAAAAATATATACACACTAAACATAAAAAA [CACACA_site20],10.1
18,AACGCACATATATTTATGTATATATATATATATATA [GTGCAC_negctrl_site478],9.74
19,GTTATTAAACAGAAAAGTACATATGTATATTAAAAT [XGTACX_site3724],9.86
20,TTATTAAATAAAATCATGCACACAATATATATTTTA [CACACA_site2496],9.7
21,TTATTACATAACAATATACACACTATTGATTAAAGA [CACACA_site2933],9.57
22,TAAAAAAAAAGAAGCTGTACTAAAAAATTTATATTA [XGTACX_site7408],9.38

row,Sequence,gcPBM binding intensity (ln)
1,AATACTAAAAAGTGTACACATACATAAAAAATTGCA [CACACA_site5620],9.92
2,AAGAAAAAAGTTATTAGTACACATTATAATAAAAAG [XGTACX_site3527],9.74
3,TATTGATTTATAAACACACACTCGAAGATGTTTAAC [CACACA_site4760],9.71
4,TATATCTCATAGTATACACACACACCCACCCACATA [CACACA_site8513],10.3
5,TATATATATGTAAATCGTACAAATTATATATATCAT [XGTACX_site2821],9.6
6,TAATTTTCTTTTTATCGTTTTTTTTTTTTTTTTTTT [XGTACX_negctrl_site432],9.4
7,CATTATGTTGTAAATACACACATACATATACATACA [CACACA_site8143],9.87
8,AGTGGAATGTATGATTTTCATTCCTTAAAATTTTAA [GTGCAC_negctrl_site521],9.49
9,CATATATAACAATTCTCACACATAAAAAAAAAAAAT [CACACA_site4564],9.76
10,AAAATAAAATATTTCTGTACTTATAACTATTCTATA [XGTACX_site8007],9.6
11,ATAAAATGATAAATTTGTACACAAAAAAAAAAAAAA [XGTACX_site964],9.62
12,GGGTATACAAATAAACGTACAAACTCATAAAAAAAA [XGTACX_site3191],9.79
13,TCTTTTTAAACTAATAGTACATATATATTAATAAAT [XGTACX_site4217],9.41
14,ATTTACATAAATTGCATATATCGATGTAAATAAATA [CACACA_negctrl_site1150],9.5
15,ATATATATATATATATGTACATATATTTATTTATTG [XGTACX_site6267],9.65
16,CATTTATTTTTGTTCTGTACATAAAGATGAACAAAA [XGTACX_site6797],9.29
17,TTAAAAAAATATAATACACACCAAAAATATGCACAT [CACACA_site5209],10.3
18,TTTTTATGGTAAATAAAAATATCTCCCTCCTTAATT [CACACA_negctrl_site1352],9.55
19,TAATAATTTATAATAGTGCATTTGATTTTAAAAATA,9.24
20,CATATAAAAATGTGCACACACACACCCATATATATT [CACACA_site1526],10.9
21,AAAATTAATAAATAAACACACATATATATATATATA [CACACA_site2598],9.93
22,TTGATTACACTGAAGTGTACATATATATATATATAT [XGTACX_site3532],9.95

row,Sequence,gcPBM binding intensity (ln)
1,AATATCCACATTAGGAGTACACAGCTAACTGTTTGA [XGTACX_site3357],9.51
2,TTTTATATAAAATCGTGTACATACCATTTCCTATTA [XGTACX_site5159],9.67
3,AAAAAAAAAAGAAACACACACATTTGTATATAATAT [CACACA_site2078],10.7
4,AAATAATAAAAAAAATGTACACGTAAATATTATATT [XGTACX_site8125],9.84
5,AGAGTTCTCATATGCACACAAAAAACTTTCATTTAT [CACACA_site45],9.76
6,TATTTTTTTCTTACATACTAATTTGGTACTCACATA [TGCATGCA_negctrl_site81],9.72
7,AAATAAATCTTATGCACACAAATAATTAATTAAACA [CACACA_site1693],9.82
8,AACCCCGTGGAAATATGTACATATAAATATATAAAT [XGTACX_site2094],9.66
9,TAAATAAGCACATACACACATACATACATACATAAA [CACACA_site4017],10.1
10,TTTTTGCCATATTACACACACACATGTAAACCCCCT [CACACA_site1647],10.1
11,GTGAAATATGCAAACACACACGAGAAAAATGTATAT [CACACA_site7488],10
12,CAAAACAAAACGTATGCACACAATTAATATATTAAA [CACACA_site3405],9.94
13,CCATATAAAATATAAAAACACACGTATATATACATA [CACACA_site1511],9.78
14,ACAAAATGTAGAAAATGTACAAAATTAACAAAAGAA [XGTACX_site5019],9.99
15,ATTCAATCTTTTAATACACACAATTTATTTCAAAAC [CACACA_site835],9.64
16,TGTACATATATATAGATATATATAGATATATATATA [CACACA_negctrl_site1678],9.72
17,TATCCTAACTTTAGATGTACACAAATAAAAAAAAAA [XGTACX_site4491],9.32
18,AAAATACAAACAAGTGGTACTGTTTATAAATGGTTG [XGTACX_site1503],9.85
19,TTGTATATATTTATATGTACATATATTACTTTTGCT [XGTACX_site2449],9.83
20,TGTCTTGTAAATTATTGTACTATTTAAAGTATACAA [XGTACX_site7864],9.54
21,TTTTAAAAAGATCATTAAAAAAAAAAAAAGAACAAA [CACACA_negctrl_site528],9.31
22,ATAATATAACAATACGCACACGTATACAAAAAAAAA [CACACA_site5703],9.99

# From the supplement of paper PMC11417369
